Experimental data taken from the supplement of paper PMC5919970.
Where a name gives a salt, the structure may show the parent alone. Whole data set: some 2,000 compounds, median “fractional viability relative to vehicle” near 0.92, cut for the lowest 2% near 0.11. Some of the results follow.

Test system: TYKNU
Assay: fractional viability relative to vehicle; TYKNU is a high-grade serous ovarian cancer line; higher = less growth inhibition
Conditions: 72 h, genotype: OPA1 knockout (sgOPA1 #2)
How it was run: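 Drug treatment lasted 72 h, with cells grown at 37 °C in 5% CO2 in RPMI 1640 supplemented with 10% FBS. Beforehand, TYKNU control cells or their lentiCRISPRv2 knockout derivatives had been seeded at 500 cells per well into drug-stamped 384-well plates carrying a ~2100-compound library at 2 or 10 μM, in duplicate. Viability came from Cell Titer Glo luminescence, with averaged duplicate treatment wells normalised to duplicate control wells in the same plate position.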

Structure (SMILES)	fractional viability (2uM)	fractional viability (10uM)
COc1ccc(C[C@@H]2c3cc(OC)c(OC)cc3CC[N@+]2(C)CCC(=O)OCCCCCOC(=O)CC[N@@+]2(C)CCc3cc(OC)c(OC)cc3[C@H]2Cc2ccc(OC)c(OC)c2)cc1OC [Cisatracurium Besylate]	1.01	0.743
CCOC(=O)c1c(C)n(C)c2ccc(O)cc12 [Mecarbinate]	1.04	1.11
CC(N)C12CC3CC(CC(C3)C1)C2 (stereo unspecified) [Rimantadine]	1.16	0.989
CN(CCOc1ccc(CC2SC(=O)NC2=O)cc1)c1ccccn1 (stereo unspecified) [Rosiglitazone HCl]	1.05	1.02
CN(CCOc1ccc(CC2SC(=O)NC2=O)cc1)c1ccccn1 (stereo unspecified) [Rosiglitazone maleate]	0.952	0.847
CN(CCOc1ccc(CC2SC(=O)NC2=O)cc1)c1ccccn1 (stereo unspecified) [Rosiglitazone]	0.878	0.729
CC(C)C[C@H](NC(=O)[C@H]1O[C@@H]1C(=O)O)C(=O)NCCCCN=C(N)N	0.888	0.776
CN(C)Cc1ccc(-c2nc3cccc4c3n2CCNC4=O)cc1	0.997	0.847
O=C(/C=C\n1cnc(-c2cc(C(F)(F)F)cc(C(F)(F)F)c2)n1)NNc1cnccn1	0.22	0.243
Cc1[nH]c(/C=C2\C(=O)Nc3ccc(S(=O)(=O)N(C)c4cccc(Cl)c4)cc32)c(C)c1C(=O)N1CCN(C)CC1	1.37	0.133
CCC1C/C(=C\c2cccnc2)C(=O)/C(=C/c2cccnc2)C1 (stereo unspecified)	0.442	0.189
Oc1c2ccccc2c2c3c(cccc13)N=N2	1.68	1.27
COC(=O)[C@@H]1[C@H]2C[C@H]3c4[nH]c5ccccc5c4CCN3C[C@@H]2CC[C@@H]1O [Yohimbine HCl]	1.06	0.849
CC(C)NCC(O)COc1cccc2ccccc12 (stereo unspecified) [Propranolol HCl]	0.809	1.12
Cc1nc(NC(=O)N2CCC[C@H]2C(N)=O)sc1-c1ccnc(C(C)(C)C(F)(F)F)c1	0.866	0.631
Cc1cc(C(O)=C2C(=O)C(=O)N(CCCN3CCOCC3)C2c2ccncc2)ccc1OCc1ccccc1 (stereo unspecified)	0.973	0.814
Nc1ncnc2c1c(-c1cnc3[nH]ccc3c1)nn2C1CCCC1	0.547	0.343
O=C1CCc2cc(OCCCCc3nnnn3C3CCCCC3)ccc2N1 [Cilostazol]	1.07	1.02
N#C[C@@H]1C[C@@H]2C[C@@H]2N1C(=O)[C@@H](N)C12CC3CC(CC(O)(C3)C1)C2 [Saxagliptin]	0.909	0.958
CCS(=O)(=O)CCn1c([N+](=O)[O-])cnc1C [Tinidazole]	1.66	1.13
CCOC(=O)c1ccc(NC(=O)O[C@H]2[C@H](OC(=O)Nc3ccc4c(c3)OCO4)[C@@H](OC(=O)Nc3ccc4c(c3)OCO4)[C@@H](OC)O[C@@H]2CO)cc1	1.07	0.86
CCNC(=O)C#Cc1ccc2c(C(=Nc3ccc(CN(C)C)cc3)c3ccccc3)c(O)[nH]c2c1	0.276	0.0913
CCCCOc1cc(C(=O)NCCN(CC)CC)c2ccccc2n1 [Dibucaine HCl]	1.01	0.958

Structure (SMILES)	fractional viability (2uM)	fractional viability (10uM)
COc1cc(Nc2nc3ccccc3nc2NS(=O)(=O)c2ccc(NC(=O)c3ccc(C)c(OC)c3)cc2)cc(OC)c1	1	1.04
CCC1=C(C)CN(C(=O)NCCc2ccc(S(=O)(=O)NC(=O)N[C@H]3CC[C@H](C)CC3)cc2)C1=O [Glimepiride]	1.05	1.02
CCC(=O)O[C@]1(C(=O)CCl)[C@@H](C)C[C@H]2[C@@H]3C[C@H](F)C4=CC(=O)C=C[C@]4(C)[C@@]3(F)[C@@H](O)C[C@@]21C [Halobetasol Propionate]	1.08	0.662
CCN1CC(CCN2CCOCC2)C(c2ccccc2)(c2ccccc2)C1=O (stereo unspecified) [Doxapram HCl]	0.944	0.875
CN(C)Cc1cccc(N/C(=C2\C(=O)Nc3cc(C(N)=O)ccc32)c2ccccc2)c1	0.93	0.993
OCc1cc(C(O)CNCCCCCCOCCCCc2ccccc2)ccc1O (stereo unspecified) [Salmeterol Xinafoate]	0.922	0.798
CC(=O)OCC(=O)[C@@]12N=C(C)O[C@@H]1C[C@H]1[C@@H]3CCC4=CC(=O)C=C[C@]4(C)[C@H]3[C@@H](O)C[C@@]12C [Deflazacort]	1.14	1.21
Cn1nccc1Nc1nccc(-c2ccn([C@H](CO)c3ccc(Cl)c(F)c3)c(=O)c2)n1	0.635	0.427
Cc1nc2n(c(=O)c1CCN1CCC(c3noc4cc(F)ccc34)CC1)CCCC2 [Risperidone]	0.965	0.732
CNCCC(Oc1ccc(C(F)(F)F)cc1)c1ccccc1 (stereo unspecified) [Fluoxetine HCl]	1.24	0.774
C[C@@H](CN1CC(=O)NC(=O)C1)N1CC(=O)NC(=O)C1 [Dexrazoxane HCl (ICRF-187, ADR-529)]	1.03	1.1
O=S(=O)(O)CCS [Mesna]	1.27	1.05
CCCCNC(=O)NS(=O)(=O)c1ccc(C)cc1 [Tolbutamide]	1.09	0.981
C[C@@H]1O[C@@H](O[C@H]2[C@H](Oc3cc(O)c(C(=O)CCc4ccc(O)cc4)c(O)c3)O[C@H](CO)[C@@H](O)[C@@H]2O)[C@H](O)[C@H](O)[C@H]1O [Naringin Dihydrochalcone]	1.09	1.02
Cc1cccc(-c2[nH]c(CNc3ccccc3F)nc2-c2ccc3ncnn3c2)n1	0.988	1.14
O=C(Nc1c(Cl)cncc1Cl)c1ccc(OC(F)F)c(OCC2CC2)c1 [Roflumilast]	1.12	1.01
CCOC(=O)OC(C)OC1=C(C(=O)Nc2ccccn2)N(C)S(=O)(=O)c2ccccc21 (stereo unspecified) [Ampiroxicam]	0.887	0.905
CCCS(=O)(=O)Nc1ccc(F)c(C(=O)c2c[nH]c3ncc(-c4ccc(Cl)cc4)cc23)c1F [Vemurafenib (PLX4032, RG7204)]	1.13	1
CC1(C)S[C@@H]2[C@H](NC(=O)[C@H](NC(=O)N3CCN(S(C)(=O)=O)C3=O)c3ccccc3)C(=O)N2[C@H]1C(=O)O [Mezlocillin Sodium]	0.892	0.979
Cn1c(=O)cc(N2CCC[C@@H](N)C2)n(Cc2ccccc2C#N)c1=O [Alogliptin]	0.952	1.08
Cc1nnc(C(C)C)n1C1C[C@H]2CC[C@@H](C1)N2CC[C@H](NC(=O)C1CCC(F)(F)CC1)c1ccccc1 (stereo in doubt) [Maraviroc]	0.954	1.02
CCCCCCCN(CC)CCCC(O)c1ccc(NS(C)(=O)=O)cc1 (stereo unspecified) [Ibutilide Fumarate]	0.783	0.815
COc1ccc(-c2cc(=O)c3c(O)cc(O[C@@H]4O[C@H](CO[C@@H]5O[C@@H](C)[C@H](O)[C@@H](O)[C@H]5O)[C@@H](O)[C@H](O)[C@H]4O)cc3o2)cc1O [Diosmin]	1.17	1.08

Structure (SMILES)	fractional viability (2uM)	fractional viability (10uM)
COc1cc(Nc2ncc(F)c(Nc3ccc4c(n3)N(COP(=O)(O)O)C(=O)C(C)(C)O4)n2)cc(OC)c1OC [Fostamatinib (R788)]	1.07	0.482
CNC(=O)Nc1ccc(-c2nc(N3CC4CCC(C3)O4)c3cnn(C4CCC5(CC4)OCCO5)c3n2)cc1	0.28	0.361
COC1=C2C[C@@H](C)C[C@H](OC)[C@H](O)[C@@H](C)/C=C(\C)[C@H](OC(N)=O)[C@@H](OC)/C=C\C=C(/C)C(=O)NC(=CC1=O)C2=O [Geldanamycin]	0.538	0.233
CN1CC2c3ccccc3Oc3ccc(Cl)cc3C2C1 (stereo unspecified) [Asenapine]	1.1	0.902
CCCCNc1ncc2c(-c3ccc(CN4CCN(C)CC4)cc3)cn([C@H]3CC[C@H](O)CC3)c2n1	0.615	0.23
c1ccc2[nH]c(-c3cscn3)nc2c1 [Thiabendazole]	1.09	0.955
Cn1cc(-c2ccc3nnc(C(F)(F)c4ccc5ncccc5c4)n3n2)cn1	1.08	1.07
CCC(CC)CC1(C(=O)Nc2ccccc2SC(=O)C(C)C)CCCCC1	0.898	0.927
CCCCCCCCc1ccc(CCC(N)(CO)CO)cc1 [Fingolimod (FTY720) HCl]	1.08	0.0752
COc1cc(C(=O)NC2CCCNC2)cc(OC)c1OC (stereo unspecified) [Troxipide]	0.843	0.92
C[C@]12CC[C@@H]3c4ccc(O)cc4CC[C@H]3[C@@H]1CCC2=O [Estrone]	0.955	0.941
CC(C)c1cc(C(=O)N2Cc3ccc(CN4CCN(C)CC4)cc3C2)c(O)cc1O	0.582	0.545
CN1CCC(COc2cnc(-c3cccc(Cn4nc(-c5cccc(C#N)c5)ccc4=O)c3)nc2)CC1	0.78	0.216
COc1cnc(NS(=O)(=O)c2ccc(N)cc2)nc1 [Sulfameter]	0.892	1.16
O=NN(CCCl)C(=O)NC1CCCCC1 [Lomustine]	1.07	0.74
COc1cc(CCC(C)=O)ccc1O [Vanillylacetone]	1.02	0.895
COc1cc(Cc2cnc(N)nc2N)cc(OC)c1OC [Trimethoprim]	0.946	0.924
COc1cc2c(cc1OC)CN(CCc1ccc(NC(=O)c3cc(OC)c(OC)cc3NC(=O)c3cnc4ccccc4c3)cc1)CC2 [Tariquidar]	0.891	0.459
COc1ccc([C@H]2CNC(=O)C2)cc1OC1CCCC1 [S- (+)-Rolipram]	1.2	1.04
CNCC[C@H](Oc1cccc2ccccc12)c1cccs1 [Duloxetine HCl]	1.17	1.28
C[C@@H](Oc1cc(-n2cnc3ccc(CN4CCN(C)CC4)cc32)sc1C(N)=O)c1ccccc1C(F)(F)F	0.797	0.364
CC1(COc2ccc3c(c2)ncn3-c2ccc3cccc(N4CCC(N)CC4)c3n2)COC1	1.12	0.135
